Source: PubChem BioAssay AID686970 (National Center for Advancing Translational Sciences (NCATS), 2013)
Out of some 360,000 compounds screened, about 6,000 (1.7%) were called active. Inconclusive results, whose numbers are uncertain, are shown with a selection of clear calls. Calls follow the shape of the dose curve; as a rule, active = well fitted cell-killing curve with a large enough effect; inconclusive = small, poorly fitted or top-dose-only effect, or effect the other way; inactive = flat fitted curve, though single readings scatter. No potency is given beside an inconclusive call; the fits are too rough.

Assay: qHTS for induction of synthetic lethality in tumor cells producing 2HG: qHTS for the HT-1080-NT fibrosarcoma cell line;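 also: NT is the 2HG producing partner of a matched IDH1 knockdown line; nearly all actives have a fitted effect of over 55% in size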;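 as to activity, negative = less viability: 0% = DMSO-treated cells and -100% = media-only wells without cells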
Details: HT-1080-NT fibrosarcoma viability, CellTiter-Glo ATP luminescence, 48 h; activity, negative = less viability: at 46.1 µM (top of the series) unless noted
Outline: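 Luminescent CellTiter-Glo readout after 48 hours of compound exposure at 37 degrees C defined viability of HT-1080-NT cells. Activity was normalized to DMSO wells and cell-free media wells; concentration-response curves were fitted and assigned curve classes.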
Potency is read from the fitted curve at half-maximal effect; tags tell the direction and shape of the fitted curve.

Row | Structure (SMILES) | Potency | activity, negative = less viability
1 | O=C(c1cc(COc2c(F)cccc2F)on1)N1CCC(c2ccccc2F)C1 (stereo not drawn) | inactive | 
2 | Cc1cc(C)cc(NC(=S)N2CCN(Cc3ccccc3)CC2)c1 | inactive | 
3 | Cc1cc(SC#N)cc(C)c1NC(=O)CCl | active: 18.4 µM | 
4 | C=C(C)[C@@H]1CC=C(CN2CCC(N3CCC(C(=O)N4CCCC4)CC3)CC2)CC1 | active: 18.4 µM | 
5 | CCOC(=O)c1c(CN2CCN(CCO)CC2)n(-c2ccccc2)c2cc(Br)c(O)cc12 | inconclusive [cytotoxic, single point] | 
6 | COc1ccc(OC)c(S(=O)(=O)N(C)CC(=O)N2CCN(c3ccccc3F)CC2)c1 | inactive | 
7 | CCC(C)NCCOCCOc1ccc(Cl)c(C)c1C (stereo not drawn) | inconclusive [cytotoxic, single point] | 
8 | O=C1C2C3C=CC(C4CC34)C2C(=O)N1Cc1ccccc1 (stereo not drawn) | inconclusive [rising, single point] | 
9 | O=C(CSc1nc2[nH]ncc2c(=O)n1-c1ccc(Cl)c(Cl)c1)NCc1ccccc1Cl | inconclusive [cytotoxic, partial curve] | 
10 | O=C(CN1C2=NCCCN2c2ccccc21)c1ccc(Br)s1 | inconclusive [cytotoxic, partial curve] | 
11 | COc1ccc(Nc2ncnc3c2cnn3-c2cccc(C)c2)cc1OC | inactive | 
12 | COc1ccc(C2NCCc3c2[nH]c2ccccc32)cc1CSc1nc2ccccc2s1 (stereo not drawn) | active: 23.1 µM | 
13 | COc1ccc(NC(=O)CNC(=O)Cn2c(C)cc3ccccc3c2=O)c(OC)c1 | inconclusive [cytotoxic, single point] | 
14 | CCCCNc1c(-c2ccc(OC)c(Sc3ccc(OC)cc3)c2)nc2cnccn12 | active: 29.1 µM | 
15 | O=C(O)c1ccccc1C(=O)NNc1ccc(F)cc1 | inconclusive [cytotoxic, partial curve] | 
16 | CCC1(c2ccc(F)cc2)NC(=O)N(CC(=O)Nc2ccc(-c3nc4ccc(C)cc4s3)cc2)C1=O (stereo not drawn) | inconclusive [cytotoxic, single point] | 
17 | N#CC(C#N)=C(Nc1ccc(F)cc1)SCc1cccc(Br)c1 | active: 9.2 µM | 
18 | C/C(CCC(C)C)=N\Nc1cc(C)c2ccccc2n1 | inactive | 
19 | Nc1nnnn1/N=C/c1ccc(Cl)cc1 | inconclusive [cytotoxic, single point] | 
20 | CN(c1ccccc1)S(=O)(=O)c1cccc(NC(=O)C2=NNC(=O)CC2)c1 |  | inconclusive: -2.73% [cytotoxic]
21 | CCOC(=O)C1=C(CSc2nc3ccccc3s2)NC(=O)NC1c1ccc(OC)cc1 (stereo not drawn) | inconclusive [cytotoxic, single point] | 
22 | O=C(Cn1nnc(-c2ccccc2NC(=O)c2ccccc2F)n1)NCc1ccco1 | inconclusive [cytotoxic, single point] | 
23 | O=[N+]([O-])c1ccc(S(=O)Cc2ccccc2)c([N+](=O)[O-])c1 (stereo not drawn) | active: 16.4 µM | 
24 | CC(NC(=S)NCCc1ccccc1)C(c1cccs1)N1CCN(Cc2ccccc2)CC1 (stereo not drawn) | inconclusive [cytotoxic, single point] | 

Row | Structure (SMILES) | Potency | activity, negative = less viability
25 | O=C1SCCN1N=Cc1ccc([N+](=O)[O-])o1 | inconclusive [cytotoxic, single point] | 
26 | COc1ccc(CCC(C)NCCc2ccc(Cl)cc2Cl)cc1 (stereo not drawn) | inconclusive [cytotoxic, single point] | 
27 | Oc1cccc(-c2nc3ccccc3s2)c1 | inconclusive [cytotoxic, partial curve] | 
28 | Cc1cnc(C(=O)Nc2nc(-c3ccccc3)cs2)cn1 | inactive | 
29 | CCOc1ccc2nc(SCC(=O)NCc3ccc(OC)c(OC)c3)[nH]c2c1 | inactive | 
30 | CC1CC2=C(NC(=S)NC2c2ccc(F)cc2)/C(=C/c2ccc(F)cc2)C1 (stereo not drawn) | active: 10 µM | 
31 | CCc1nc2ccccc2c(C(=O)OCC(=O)Nc2ccc(S(=O)(=O)N3CCOCC3)cc2)c1C | inconclusive [cytotoxic, partial curve] | 
32 | COc1cccc(NC(=O)C2(C)CCN2Cc2ccccc2OC(F)F)c1 (stereo not drawn) | inconclusive [cytotoxic, single point] | 
33 | CCCCNC(=O)c1ccc(Cn2c(=S)[nH]c3c([nH]c4ccc(OC)cc43)c2=O)cc1 | inconclusive [cytotoxic, single point] | 
34 | COc1ccc(C(=O)c2ccc(N(C)C)cc2)c(OC)c1 | active: 3.55 µM | 
35 | COCCOC(=O)c1c(NC(=O)CN2c3ccccc3CC2C)sc(C(N)=O)c1C (stereo not drawn) | inactive | 
36 | CC(CNC(=O)CCn1c(=O)c2cccn2c2ccc(F)cc21)c1ccccc1 (stereo not drawn) | inactive | 
37 | COc1ccc(C(=O)/C(C#N)=N/Nc2cccc([N+](=O)[O-])c2)cc1 | inconclusive [cytotoxic, single point] | 
38 | Cc1cc(OCc2ccc(C(=O)Nc3ccc(C(=O)O)cc3)o2)ccc1Cl | active: 11.6 µM | 
39 | O=[N+]([O-])c1cccnc1N1CCC(c2cc(-c3ccc(Cl)cc3Cl)n[nH]2)CC1 | inconclusive [cytotoxic, single point] | 
40 | Cc1ccc(-n2c3nc(=O)[nH]c(=O)c-3cc3cc([N+](=O)[O-])ccc32)cc1 | inconclusive [cytotoxic, single point] | 
41 | O=C(CN1C(=O)NC2(CCCCC2)C1=O)NCc1cccs1 | inactive | 
42 | COc1ccc(NC(=O)CSc2nc3ncccc3[nH]2)cc1OC | inactive | 
43 | CCOC(=O)c1ccccc1NS(=O)(=O)c1ccc(OC)cc1 | inconclusive [cytotoxic, single point] | 
44 | COc1cccc(N2CC(C(=O)Nc3nnc(SCCN4CCOCC4)s3)CC2=O)c1 (stereo not drawn) | inactive | 
45 | COc1ccccc1C/C(N)=N/OC(=O)c1cccs1 | inconclusive [cytotoxic, single point] | 
46 | COc1cc(CNC(C)(C)CO)cc(Br)c1OCc1ccc(Cl)cc1Cl | active: 16.4 µM | 
47 | Cc1cc(/C=C(\C#N)C(=O)NCC2CCCO2)c(C)n1-c1ccc(Cl)cc1 (stereo not drawn) | inactive | 
48 | O=C(N/N=C\c1ccc(Cl)s1)C1COc2ccccc2O1 (stereo not drawn) | inconclusive [cytotoxic, single point] | 
